The supplement of paper PMC3334620
Whole data set: some 33,000 sequences, median “E-score (-0.5 to 0.5)” near -0.011, cut for the highest 2% near 0.28. Some of the results follow.

target: T1, Gcr1 (UniProt P07261); experiment: PBM E-score (8-mer binding enrichment) (E-score (-0.5 to 0.5)); higher = stronger / more preferred TF binding; most listed sequences are background and not binding sites; conditions: protein concentration: 100 nM; construct: GST-full length
T1 sequence: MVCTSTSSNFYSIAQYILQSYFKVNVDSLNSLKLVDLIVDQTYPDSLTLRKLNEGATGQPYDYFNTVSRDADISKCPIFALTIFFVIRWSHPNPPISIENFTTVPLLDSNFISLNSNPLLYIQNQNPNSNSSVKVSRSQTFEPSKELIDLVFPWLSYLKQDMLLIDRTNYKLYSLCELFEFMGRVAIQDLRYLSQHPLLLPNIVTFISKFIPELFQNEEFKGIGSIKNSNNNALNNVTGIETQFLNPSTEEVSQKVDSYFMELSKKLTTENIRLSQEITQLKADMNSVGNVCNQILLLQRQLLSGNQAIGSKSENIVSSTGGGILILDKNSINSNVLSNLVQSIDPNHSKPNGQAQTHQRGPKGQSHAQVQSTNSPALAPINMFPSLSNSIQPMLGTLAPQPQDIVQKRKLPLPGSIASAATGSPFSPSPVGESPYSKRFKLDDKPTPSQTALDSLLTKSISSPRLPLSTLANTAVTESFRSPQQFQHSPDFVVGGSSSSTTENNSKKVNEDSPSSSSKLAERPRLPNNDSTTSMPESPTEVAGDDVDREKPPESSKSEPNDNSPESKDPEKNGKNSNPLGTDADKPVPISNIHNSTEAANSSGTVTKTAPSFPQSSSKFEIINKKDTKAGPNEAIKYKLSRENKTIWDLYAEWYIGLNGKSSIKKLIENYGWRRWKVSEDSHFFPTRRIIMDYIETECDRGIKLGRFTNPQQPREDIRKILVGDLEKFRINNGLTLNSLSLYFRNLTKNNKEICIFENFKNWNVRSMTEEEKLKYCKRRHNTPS
In short: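 Universal all-10-mer Agilent arrays, double-stranded by primer extension on fresh or once-stripped slides, were probed with about 100-200 nM GST-tagged yeast transcription factors made by PURExpress. Fluorescent anti-GST detected bound protein, and masliner normalised the scans. E-scores from the Universal PBM Analysis Suite were given to each ungapped eight-base word pooled with its reverse complement.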

Sequence	PBM E-score
GTTTCCTA	0.00725
CAGCGGGG	-0.11
AAAGACGT	0.0548
CATGGTAG	-0.205
GATACAAA	0.021
GGATATAA	0.162
CCTACCCA	-0.106
CATTGGCC	-0.116
ATGGTCGC	-0.023
GATTCGGA	0.153
ACGTGTCG	-0.218
GCTAGGAC	-0.115
TCCCTCAA	0.00435
ACTTTTAG	0.0207
TGTTAACA	-0.0311
CATCTAGA	0.00981
GTGCACCA	-0.154
ACATAAGC	0.0671
CCATGATA	-0.0729
AGAGACCT	-0.153
ATACTCAG	0.0334
CAGTTGAG	-0.0438
ACACACAT	-0.0321
GACTCTCA	-0.0371
GCCTCGGA	-0.159

Sequence	PBM E-score
AATCACAT	-0.0824
AAGTACTT	0.156
AGGTCGTC	-0.181
TACGTCTA	0.143
CAGATAGC	0.0723
GGCCGGGA	-0.0727
AGATCACT	0.0437
GGTTCTTA	0.238
ACACAGCC	-0.257
GCTGCGAA	0.17
CGACACAA	-0.0722
AACCCGTA	-0.0238
AAGGAGTC	-0.0124
CTGAGCGC	-0.0234
GATAACTA	0.153
CTAGCATA	0.017
ATGGTTCA	-0.153
ATTGACAC	-0.193
GCTCGCCC	-0.169
AAATCTGC	0.0369
ACTGATAC	0.0968
CGGAAGGA	0.0319
GTTCACAA	-0.115
CCTTAGAA	0.195
AAAATGCC	0.1

Sequence	PBM E-score
AAATGGTA	0.0505
CTTGATCC	0.046
ACACTTGC	-0.152
GTATAACA	0.0924
AGACGGCT	-0.193
GCCGGGTA	-0.0626
AACATCCT	0.231
GCTGGAGA	0.13
GGCGTGAC	-0.204
GATGCCGA	0.335
GATGCAAA	0.246
CGAGCTAA	-0.129
AGGCCTAT	-0.0757
GCTAATGA	-0.00839
GCTGAGAC	0.0117
ATCCAACC	-0.102
GAAGAGGC	0.0599
AGCGTAGG	-0.139
GCGGTCCA	-0.101
GAGGTCAA	0.0238
CCGGTTCA	-0.0142
AAACCGGT	0.118
CGTCCGGC	0.137
GTTGCACA	-0.112
AAATCCAC	0.0463

Sequence	PBM E-score
CGTCATAA	-0.0105
AAACATGT	0.133
CCAACTGA	-0.016
CTGCTTCA	-0.225
CCCCAAGG	-0.0911
CAAAATTA	0.086
AAACACCC	0.085
CCCGTCGC	0.0626
ACGCCGGA	0.0899
ACGGAATA	0.00251
GCCACTCC	-0.045
AACGTTTA	-0.0574
GTACGATA	-0.0276
AGAGCTTG	-0.304
ATTCACAG	-0.0484
ATGAGAGG	-0.0153
AGCCCGTA	-0.0871
ACGAAGAA	-0.0157
AAAGTGTC	-0.135
ACTATGGA	-0.00785
CCCGTCGA	-0.121
GATAAAAA	0.0621
AATTTTGA	0.0378
GATCAGTA	-0.124
CCAAGGAA	-0.138

Sequence	PBM E-score
ACTGCTAG	-0.121
AGGGGGGG	-0.309
AGACTTTG	-0.078
CTTTTGCC	-0.0371
ATTTCCTG	-0.0336
GAGACCCC	-0.0161
GGACAGCA	-0.291
CGAATGAA	-0.0737
CGTCCCTA	0.0186
CTGGCTGC	0.35
CATGATAC	0.0457
CGAGATTC	0.208
CCAAGTAG	0.0382
CCTGGTCG	-0.127
ATTTTTTC	0.0794
ATATACTG	-0.023
AGGCAAGC	-0.259
GCTAGATA	0.19
ACTAAAAG	0.174
GACACGCA	0.19
AAGTTACG	-0.0292
GCAGAAAC	0.0158
AGATCGCG	-0.0936
GAGAGCAC	0.221
GACAGTAC	-0.215

Sequence	PBM E-score
CGAGAACC	0.0913
CCCCTAGG	-0.198
CTAAGAGA	-0.129
CCAGACTC	0.00878
GTATGGTA	0.0596
TATAGTCA	-0.0997
AAGCTGAG	-0.124
ATGTTATG	0.0312
ACCACAGT	0.0769
CGCAATGC	-0.0825
TCAAAGGA	0.0741
GAGTGCAA	0.0879
AAGACGGC	-0.142
CTTAGTTC	0.015
ACCGTTCT	-0.108
GAATCTAC	0.277
CCACGAAC	0.0539
ACATGACG	0.127
CCAGGACG	0.0878
GCAGGTCC	-0.0471
ATTGTAAC	0.0272
CAGGACCC	0.24
CGCAGTGA	0.0378
CACCACTA	0.298
GTAGATAC	0.0637

Sequence	PBM E-score
AATGAGGA	0.215
ACAGCATC	0.21
TACCCTGA	-0.0688
ATATGTTA	-0.115
CTGACGAC	0.00911
ATAGCGTA	0.045
CTTGCAAG	-0.102
AAACGATA	-0.0702
ATTTTAGG	0.249
CGTCCAAA	0.33
AACTTGTG	0.0787
AGAATCTA	0.219
ATGGGAAG	0.169
CACACCTC	-0.0485
CCAATAGC	0.158
CTGGACAG	-0.14
ATTAATTG	-0.0321
ACGTTCCC	-0.0625
AGCAAGAC	-0.0866
ACTTGTCA	-0.061
CACCGACA	-0.134
AGAGTGAG	-0.0865
